# Measurements: PubChem BioAssay AID686978 (National Center for Advancing Translational Sciences (NCATS), 2013)
# Screen size: about 420,000 compounds; about 64,000 (15%) were called active. The inconclusive results got no clear call from the source; some entries with a clear call stand among them for comparison. Calls come from the whole dose curve; as a rule, active = well fitted inhibition curve with a large enough effect; inconclusive = small, poorly fitted or top-dose-only effect; inactive = flat fitted curve, though single readings scatter. No potency is given beside an inconclusive call; the fits are too rough.
# Experiment: qHTS for Inhibitors of human tyrosyl-DNA phosphodiesterase 1 (TDP1): qHTS in cells in absence of CPT; note: nearly all actives have a fitted effect of over 55% in size
# Settings: DT40 Tdp1-/- hTDP1 cells, no CPT, ATP luminescence, 48 h; activity change, negative = growth inhibition: at 46.2 µM (top of the series) unless noted
# Outline: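 A cellular qHTS used chicken DT40 cells lacking endogenous Tdp1 but carrying stably transfected human TDP1. Compounds were applied without camptothecin, and cell growth kinetics were judged by ATP-dependent luminescence after ≥48 hr.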
# % is set by controls: 0 for no effect and ±100 for the full control effect; potency is the fitted concentration of half-maximal effect; tags give direction and shape of the fitted curve.
Structure (SMILES),"activity change, negative = growth inhibition",Potency
COc1ccc(C(=O)CN2CCN(S(=O)(=O)c3ccc(F)cc3)CC2)cc1,inactive: -19.8%,–
Cn1c(C(=O)OC(C(=O)NC2CCCC2)c2ccncc2)cc2sccc21 (stereo unspecified),–,"inconclusive [inhibitor, single point]"
CC(=O)OC1=C(C(C)=O)N(Cc2ccccc2)S(=O)(=O)c2ccccc21,–,"inconclusive [inhibitor, single point]"
CC(=O)N/C(=N/c1nc(C)cc(C)n1)Nc1ccc(C)cc1C,–,"inconclusive [inhibitor, partial curve, poor fit]"
O=C(COc1ccc2c3c(c(=O)oc2c1)CCC3)Nc1ccccn1,inactive: 11.7%,–
Cc1cc(NC(=O)c2ccc(F)cc2)ccc1-c1cc2ccccc2oc1=O,–,"inconclusive [inhibitor, full curve]"
COc1cc(SC)ccc1C(=O)Nc1ccncc1,–,active: 13 µM
CN(C)S(=O)(=O)NCC1CCCN(Cc2ccc(-c3ccccc3)cc2)C1 (stereo unspecified),–,"inconclusive [inhibitor, single point]"
CCOC(=O)C1CN(C(=O)OCC)CC1=NNC(N)=O (stereo unspecified),inactive: -17.5%,–
Nc1ncnn1Cc1ccccc1,inactive: 4.31%,–
Cc1c(C(=O)N(Cc2ccccc2)Cc2cccs2)cnn1-c1ccc(Cl)cc1,–,"inconclusive [inhibitor, single point]"
O=C1COc2ccc(S(=O)(=O)Nc3ccc(F)cc3)cc2N1,inactive: 5.45%,–
CCOC(=O)N1CCN(C(=S)Nc2cc(OC)c(OC)cc2C(=O)OC)CC1,inactive: -18.5%,–
CCOC1=C2CN(S(=O)(=O)c3ccc(C)cc3)[C@H](c3ccc(CC)cc3)C[C@@H]2N(S(=O)(=O)c2ccc(C)cc2)[C@H](c2ccccc2)C1,–,"inconclusive [inhibitor, partial curve]"
COc1ccc(NC(=O)c2ocnc2C)cc1OC,inactive: -15.3%,–
O=C(c1cc(-c2ccc(Br)cc2)n[nH]1)N1CCN(S(=O)(=O)c2ccc(Br)s2)CC1,–,active: 23.1 µM
COc1ncnc2c1ncn2CCCNC1CCN(Cc2ccccc2)CC1,–,"inconclusive [inhibitor, single point]"
Cc1cccc(OCCCC(=O)Nc2ccc(N(C)C)cc2)c1,–,"inconclusive [inhibitor, single point]"
CN(C)c1ccc(/C=N/NC(=O)CNC(=O)/C=C/c2ccco2)cc1,–,"inconclusive [inhibitor, single point]"
CCOC(=O)c1nnn(CC(=O)NC(=O)Nc2ccccc2F)c1C(=O)OCC,inactive: -18.3%,–
COc1ccc(C(C)(NC(C)=O)c2nc(-c3cncnc3)cs2)cc1 (stereo unspecified),inactive: -24%,–
